According to PubChem BioAssay AID651820 (National Center for Advancing Translational Sciences (NCATS), 2012):
In all, about 340,000 compounds went through this assay and about 12,000 (3.5%) were called active. Inconclusive results, whose numbers are uncertain, are shown with a selection of clear calls. The call rests on the fitted dose curve; in most records, active means well fitted inhibition curve with a large enough effect; inconclusive means small, poorly fitted or top-dose-only effect, or another doubt; inactive means no such curve, though single readings can be large or run the other way. No potency is given beside an inconclusive call; the fits are too rough.

Assay: qHTS Assay for Inhibitors of Hepatitis C Virus (HCV)
Conditions: Huh7.5.1 HCVcc-Cre (HCVcc is cell-culture hepatitis C virus) infection, luciferase reporter, 44 h; activity change, negative = inhibition: at 41.8 µM (top of the series)
Outline: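 Infectious HCVcc-Cre (~0.5 moi) was added to cells just after compound, with cells seeded 4 h earlier at 1,000 per well. Luciferase activity after 44 h culture reported infection; substrate was incubated 15 min at room temperature before reading.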
On the % scale 0 is the no-effect control and ±100 the full control effect; potency means the concentration at half of the fitted maximal effect; tags describe the fitted curve by direction and shape.

| SMILES | Potency | activity change, negative = inhibition |
| --- | --- | --- |
| Cc1cc(C)c(C(=O)c2ccc(C(=O)N3CCCCC3)cc2)c(C)c1 | inconclusive [inhibitor, single point] | – |
| COc1ccc(-n2c(=O)/c(=C\c3cccs3)s/c2=C(/C#N)C(=O)NCCN2CCOCC2)cc1 | inconclusive [inhibitor, single point] | – |
| Cn1c(=O)c2c(nc(Cl)n2Cc2ccc(Cl)c(Cl)c2)n(C)c1=O | inconclusive [inhibitor, single point] | – |
| COc1ccc(C)cc1S(=O)(=O)N(CC(=O)Nc1cc([N+](=O)[O-])ccc1C)c1ccc(C)c(C)c1 | inconclusive [inhibitor, partial curve] | – |
| Cc1ccc(CSCc2ccc(C(=O)NCCC(C)C)o2)cc1 | inconclusive [inhibitor, single point] | – |
| O=C(NCCC1=CCCCC1)c1cc(COc2ccc(F)cc2Cl)on1 | inconclusive [inhibitor, partial curve] | – |
| c1ccc(-n2nnc(-c3nccs3)n2)cc1 | inconclusive [inhibitor, single point] | – |
| C[C@]12CCC3C(CC[C@H]4C[C@H](O)[C@H](O)C[C@]34C)C1CC[C@@H]2O (stereo partly drawn) | inconclusive [inhibitor, single point] | – |
| COc1cc(NCCCCCCN)c2ncccc2c1OC | inconclusive [inhibitor, single point] | – |
| S=C(NCc1ccco1)NCC1CCCO1 (stereo not drawn) | – | inactive: 8.71% |
| Cc1cc(C)c(C)c(S(=O)(=O)Nc2ccc(C(N)=O)cc2)c1C | inconclusive [inhibitor, single point] | – |
| Nc1c(C(=O)NCC2CCCO2)sc2nc3c(c(-c4ccco4)c12)CC/C3=C\c1ccco1 (stereo not drawn) | inconclusive [inhibitor, partial curve] | – |
| COc1ccc(CCNC(=O)C2CC3Cn4c(nc5cc6ccccc6cc54)C3N2C)cc1 (stereo not drawn) | inconclusive [inhibitor, partial curve] | – |
| CCOC(=O)c1nnn(-c2nonc2N)c1-c1ccccc1 | inconclusive [inhibitor, single point] | – |
| CCCC(c1nnnn1C1CCCC1)N1CCN(c2ccccc2F)CC1 (stereo not drawn) | inconclusive [inhibitor, partial curve] | – |
| COc1ccccc1CC(=O)Nc1cc2oc3ccccc3c2cc1OC | active: 3.98 µM | – |
| Cc1cc(C)nc(NC(=O)c2c(-c3ccccc3Cl)noc2C)c1 | inconclusive [inhibitor, single point] | – |
| COc1ccc(NC(=O)c2ccc3c(c2)C(=O)N(Cc2ccncc2)C3=O)cc1S(N)(=O)=O | inconclusive [inhibitor, single point] | – |
